# Several values for one entry are separate records, joined by “and”; a condition that tells them apart may be missing. Equal values may be shown once. Where a name gives a salt, the structure may show the parent alone. The campaign covered roughly 5,800 compounds. About 620 (11%) showed activity.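 The calls were made as follows: active = score above a cut-off or among the top three wells of a plate; in these data no inactive exceeds 0.85.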 This is a selection; strong and weak results do not stand in their true shares.
# System: primary human hepatic stellate cells (donor 1)
# Experiment: scaled lipid accumulation score (0 = DMSO-like, 1 = nortriptyline-like); higher = stronger HSC inactivation (lipid re-accumulation), active = hit call of the paper
# Conditions: 48 h
# [1] = library stock concentration: 10 mM
# [2] = library stock concentration: 3.33 mM
# [3] = library stock concentration: 1 mM
smiles,measurement,setting,value
Fc1ccc(Cl)cc1-c1nc(Nc2ccncc2)c2nccnc2n1,scaled lipid accumulation score,[1],inactive: ≤ -0.001
O=C(/C=C/c1ccccc1)NC(NC(=S)Nc1cccc2cccnc12)C(Cl)(Cl)Cl (configuration not stated) [Salubrinal],scaled lipid accumulation score,[2],inactive: ≤ 0
same,scaled lipid accumulation score,[1],inactive: 0.048 and inactive: 0.001
CC(=O)O[C@@]12CO[C@@H]1C[C@H](O)[C@@]1(C)C(=O)[C@H](O)C3=C(C)[C@@H](OC(=O)[C@H](O)[C@@H](NC(=O)OC(C)(C)C)c4ccccc4)C[C@@](O)([C@@H](OC(=O)c4ccccc4)[C@H]21)C3(C)C [Docetaxel],scaled lipid accumulation score,[2],inactive: ≤ 0
same,scaled lipid accumulation score,[1],inactive: ≤ 0
CC(=O)O[C@@]12CO[C@@H]1C[C@H](O)[C@@]1(C)C(=O)[C@H](O)C3=C(C)[C@@H](OC(=O)[C@H](O)[C@@H](NC(=O)OC(C)(C)C)c4ccccc4)C[C@@](O)([C@@H](OC(=O)c4ccccc4)[C@H]21)C3(C)C,scaled lipid accumulation score,[1],inactive: ≤ 0
CC(C(O)c1ccc(O)cc1)N1CCC(Cc2ccccc2)CC1.CC(C(O)c1ccc(O)cc1)N1CCC(Cc2ccccc2)CC1.O=C(O)C(O)C(O)C(=O)O (configuration not stated) [Ifenprodil tartrate],scaled lipid accumulation score,[1],active: 1.11
CCN(CC)CCCCCCCCOC(=O)c1cc(OC)c(OC)c(OC)c1.Cl [TMB-8 hydrochloride],scaled lipid accumulation score,[1],active: 1.03
CCN1CCC(n2cc(CNc3cc(Cl)c4ncc(C#N)c(Nc5ccc(F)c(Cl)c5)c4c3)nn2)CC1,scaled lipid accumulation score,[1],active: 1.15
O=C(c1ccc(Nc2nccc(-c3cc4ccccc4s3)n2)cc1)N1CCC(N2CCCC2)CC1 [IKK-16 (IKK Inhibitor VII)],scaled lipid accumulation score,[1],inactive: 0.246
O=C(c1ccc(Nc2nccc(-c3cc4ccccc4s3)n2)cc1)N1CCC(N2CCCC2)CC1,scaled lipid accumulation score,[1],inactive: 0.18
Clc1ccc(CSC(Cn2ccnc2)c2ccc(Cl)cc2Cl)cc1 (configuration not stated) [Sulconazole Nitrate],scaled lipid accumulation score,[2],inactive: ≤ 0
same,scaled lipid accumulation score,[1],inactive: 0.492
Clc1ccc(CSC(Cn2ccnc2)c2ccc(Cl)cc2Cl)cc1 (configuration not stated) [Sulconazole nitrate],scaled lipid accumulation score,,inactive: 0.081
same,scaled lipid accumulation score,[1],inactive: 0.297
Nc1ncnc2c1ncn2[C@@H]1O[C@H](CO)[C@@H](O)[C@H]1O [Adenosine],scaled lipid accumulation score,[2],inactive: 0.024
same,scaled lipid accumulation score,library stock concentration: 7.5 mM,inactive: 0.019
same,scaled lipid accumulation score,[1],inactive: ≤ 0 and inactive: 0.188
C[n+]1cc2c3c(ccc2c2ccc4cc5c(cc4c21)OCO5)OCO3 [Sanguinarine sulfate],scaled lipid accumulation score,library stock concentration: 4.7 mM,inactive: 0.693
same,scaled lipid accumulation score,[1],inactive: 0.287
C[n+]1cc2c3c(ccc2c2ccc4cc5c(cc4c21)OCO5)OCO3 [Sanguinarine chloride],scaled lipid accumulation score,[1],inactive: 0.196
Cc1cc(C)c(Nc2ccnc(Nc3ccc(C#N)cc3)n2)c(C)c1 [Dapivirine (TMC120)],scaled lipid accumulation score,[2],inactive: 0.243
Cc1cc(/C=C2/SC(=S)NC2=O)c(C)n1-c1cccnc1 [Optovin],scaled lipid accumulation score,[2],inactive: ≤ -0.009
same,scaled lipid accumulation score,[1],inactive: ≤ 0
O=C(CCC/C=C\C[C@@H]1[C@@H](/C=C/[C@@H](O)CCc2ccccc2)[C@H](O)C[C@@H]1O)NC(CO)CO [17-phenyl trinor Prostaglandin F2.alpha. serinol amide],scaled lipid accumulation score,[3],inactive: 0.062
N[C@@H](Cc1cc(I)c(Oc2cc(I)c(O)c(I)c2)c(I)c1)C(=O)O [L-Thyroxine],scaled lipid accumulation score,[2],inactive: ≤ 0
same,scaled lipid accumulation score,[1],inactive: ≤ 0
N[C@@H](Cc1cc(I)c(Oc2cc(I)c(O)c(I)c2)c(I)c1)C(=O)O,scaled lipid accumulation score,[1],inactive: ≤ 0
N[C@@H](Cc1cc(I)c(Oc2cc(I)c(O)c(I)c2)c(I)c1)C(=O)O [Levothyroxine],scaled lipid accumulation score,library stock concentration: 2.6 mM,inactive: ≤ 0
CC1(C)CCC(C)(C)c2cc(NC(=O)c3ccc(C(=O)O)cc3)ccc21 [Tamibarotene],scaled lipid accumulation score,[2],inactive: ≤ 0
same,scaled lipid accumulation score,[1],inactive: ≤ -0.001
O=C(O)C(O)Cc1ccc(O)c(O)c1 (configuration not stated) [Sodium Danshensu],scaled lipid accumulation score,[2],inactive: ≤ 0
same,scaled lipid accumulation score,[1],inactive: ≤ 0
Cc1ccc(CC2(O)CCN(CCOc3ccc(O)cc3)CC2)cc1,scaled lipid accumulation score,[1],inactive: 0.414
Cc1ccc(NC(=O)Nc2cc(C(F)(F)F)ccc2F)cc1Nc1ccc2c(c1)NC(=O)C2=Cc1ccc[nH]1,scaled lipid accumulation score,library stock concentration: 2 mM,active: 1.14
same,scaled lipid accumulation score,[1],active: 1.61
N=C(N)NC(=O)Cc1c(Cl)cccc1Cl [Guanfacine HCl],scaled lipid accumulation score,library stock concentration: 7.1 mM,inactive: ≤ -0.006
N=C(N)NC(=O)Cc1c(Cl)cccc1Cl [Guanfacine hydrochloride],scaled lipid accumulation score,,inactive: ≤ 0
same,scaled lipid accumulation score,[1],inactive: 0.148 and inactive: 0.048
CCCCCCC=CCCCCCCCCCCOC(C)=O [11-cis Vaccenyl Acetate],scaled lipid accumulation score,[3],inactive: ≤ 0
CNCc1ccc(C)c(NC(=O)c2ccc(Nc3nc(-c4ccccc4)c4ccccc4n3)cc2)c1,scaled lipid accumulation score,[2],active: 1.14
COc1cc(Nc2ncc(F)c(Nc3ccc4c(n3)N(COP(=O)(O)O)C(=O)C(C)(C)O4)n2)cc(OC)c1OC [Fostamatinib (R788)],scaled lipid accumulation score,[1],active: 1.01
"COc1cc(OC)cc(OC)c1 [1,3,5-trimethoxybenzene]",scaled lipid accumulation score,[1],inactive: ≤ 0
Nc1cccc2c1C(=O)N(C1CCC(=O)NC1=O)C2=O (configuration not stated) [Pomalidomide],scaled lipid accumulation score,[2],inactive: ≤ 0
same,scaled lipid accumulation score,[1],inactive: ≤ 0
COc1cc(O)c(C(=O)c2ccccc2)cc1S(=O)(=O)O,scaled lipid accumulation score,[1],inactive: ≤ 0
O=c1cnn([C@@H]2O[C@H](CO)[C@@H](O)[C@H]2O)c(=O)[nH]1,scaled lipid accumulation score,[1],inactive: ≤ 0
COC(=O)C1=C(C)NC(C)=C(C(=O)NCCCN2CCC(c3ccccc3)(c3ccccc3)CC2)C1c1ccc([N+](=O)[O-])cc1 (configuration not stated),scaled lipid accumulation score,[1],inactive: 0.548
Cc1ccc(C(=O)Nc2cccc(C(F)(F)F)c2)cc1Nc1nc(-c2cccnc2)nc2c1cnn2C,scaled lipid accumulation score,[2],active: 0.942
same,scaled lipid accumulation score,[1],active: 0.959
Oc1ccc(OC2CCCCO2)cc1 (configuration not stated) [Deoxyarbutin],scaled lipid accumulation score,[2],inactive: ≤ 0
same,scaled lipid accumulation score,[1],inactive: ≤ -0.001
C=C1C[C@@]23CC[C@H]4[C@@](C)(CCC[C@@]4(C)C(=O)O)[C@@H]2CC[C@]1(O)C3 [Steviol],scaled lipid accumulation score,[1],inactive: ≤ 0
O=C(O)Cc1nn(Cc2ccc(Br)cc2F)c(=O)c2ccccc12 [Statil],scaled lipid accumulation score,[1],inactive: ≤ 0
N[C@@H](Cc1c[nH]c2ccc(O)cc12)C(=O)O [5-Hydroxy-L-tryptophan],scaled lipid accumulation score,[1],inactive: ≤ -0.07
N[C@@H](Cc1c[nH]c2ccc(O)cc12)C(=O)O [5-hydroxytryptophan (5-HTP)],scaled lipid accumulation score,[2],inactive: ≤ 0
same,scaled lipid accumulation score,[1],inactive: ≤ 0
